Results reported in the supplement of paper PMC12217912.
Some of the results follow. The full chains were built here from the parent and the listed change. Inactive controls read about 0.05.

B1: TEV protease; numbered along this chain (parent)
chain: MGESLFKGPRDYNPISSSICHLTNESDGHTTSLYGIGFGPFIITNKHLFRRNNGTLVVQSLHGVFKVKDTTTLQQHLVDGRDMIIIRMPKDFPPFPQKLKFREPQREERICLVTTNFQTKSMSSMVSDTSCTFPSGDGIFWKHWIQTKDGQCGSPLVSTRDGFIVGIHSASNFTNTNNYFTSVPKNFMELLTNQEAQQWVSGWRLNADSVLWGGHKVFMVKPEEPFQPVKEATQL

Variants of: B1
Test: raw area under fraction-flipped curve 0-4 h after induction (AUC4h, not background-subtracted), DNA-recorder readout of cleavage of the substrate (dimensionless); higher = more cleavage of the substrate by the protease variant
Conditions: temperature: 34 °C; time window: 0-4 h after rhamnose induction
Experimental: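 In vivo DNA recorder in E. coli TOP10(DE3) ΔrhaA at 34 °C. Each TEVp single-site mutant (parent TEVp 0) is paired with a single-site variant of the 7-mer TEVs (canonical ENLYFQ|S). The substrate sits between flexible linkers in a Bxb1-sfGFP-TEVs-SsrA fusion, so cleavage stabilises Bxb1 and speeds flipping of a recombination array, read by NGS. The value is the raw area under the fraction-flipped curve over 0-4 h after rhamnose induction (AUC4h), with ≥20 reads per time point. It is not background-subtracted; inactive controls average about 0.047.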
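Note: Bxb1 expression induced with 0.2% (w/v) L-rhamnose at OD600 near 0.5, cultures sampled hourly, flipped fraction per protease–substrate barcode pair counted by paired-end Illumina sequencing.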

| Variant | area with substrate ENLYFQA | area with substrate ENLYFQC | area with substrate ENLYFQD | area with substrate ENLYFQE | area with substrate ENLYFQI | area with substrate ENLYFQK | area with substrate ENLYFQL | area with substrate ENLYFQN | area with substrate ENLYFQP | area with substrate ENLYFQQ | area with substrate ENLYFQR | area with substrate ENLYFQS | area with substrate ENLYFQT | area with substrate ENLYFQV | area with substrate ENLYFQW | area with substrate ENLYFQY | area with substrate ENLYFQF | area with substrate ENLYFQG | area with substrate ENLYFQH | area with substrate ENLYFQM |
| --- | --- | --- | --- | --- | --- | --- | --- | --- | --- | --- | --- | --- | --- | --- | --- | --- | --- | --- | --- | --- |
| MGESLFKGPRDYNPISSSICHLTNESDGHTTSLYGIGFGPFIITNKHLFRRNNGTLVVQSLHGVFKVKDTTTLQQHLVDGRDMIIIRMPKDFPPFPQKLKFREPQREERICLVTTNFQTKSMSSMVSDTSCTFPSGDGIFWKHWIQTKDGQCGSPLVSTRDGFIVPIHSASNFTNTNNYFTSVPKNFMELLTNQEAQQWVSGWRLNADSVLWGGHKVFMVKPEEPFQPVKEATQL [G166P] | 0.0405 | 0.0462 | 0.0406 | 0.0656 | 0.0547 | 0.0503 | 0.0552 | 0.0277 | 0.0216 | 0.0434 | 0.0552 | 0.0471 | 0.0367 | 0.0454 | 0.0459 | 0.0367 |  |  |  |  |
| MGESLFKGPRDYNPISSSICHLTNESDGHTTSLYGIGFGPFIITNKHLFRRNNGTLVVQSLHGVFKVKDTTTLQQHLVDGRDMIIIRMPKDFPPFPQKLKFREPQREERICLVTTNFQTKSMSSMVSDTSCTFPSGDGIFWKHWIQTKDGQCGSCLVSTRDGFIVGIHSASNFTNTNNYFTSVPKNFMELLTNQEAQQWVSGWRLNADSVLWGGHKVFMVKPEEPFQPVKEATQL [P155C] | 0.0982 |  |  |  | 0.0269 | 0.0619 | 0.0525 |  |  |  | 0.0585 | 0.0847 | 0.0583 |  |  |  | 0.0795 | 0.0873 | 0.0762 |  |
| MGESLFKGPRDYNPISSSICHLTNESDGHTTSLYGIGFGPFIITNKHLFRRNNGTLVVQSLHGVFKVKDTTTLQQHLVDGRDMIIIRMPKDFPPFPQKLKFREPQREERICLVTTNFQTKSMSSMVSDTSCTFPSGDGIFWKHWIQTKDGQCGSPDVSTRDGFIVGIHSASNFTNTNNYFTSVPKNFMELLTNQEAQQWVSGWRLNADSVLWGGHKVFMVKPEEPFQPVKEATQL [L156D] | 0.0451 | 0.0486 |  | 0.0521 | 0.0413 | 0.0473 | 0.0528 | 0.0558 |  | 0.0595 |  | 0.0548 | 0.0428 | 0.0614 | 0.054 | 0.0468 |  | 0.0626 | 0.0508 | 0.0502 |
| MGESLFKGPRDYNPISSSICHLTNESDGHTTSLYGIGFGPFIITNKHLFRRNNGTLVVQSLHGVFKVKDTTTLQQHLVDGRDMIIIRMPKDFPPFPQKLKFREPQREERICLVTTNFQTKSMSSMVSDTSCTFPSGDGIFWKHWIQTKDGQCGSPIVSTRDGFIVGIHSASNFTNTNNYFTSVPKNFMELLTNQEAQQWVSGWRLNADSVLWGGHKVFMVKPEEPFQPVKEATQL [L156I] | 0.092 | 0.127 | 0.0797 | 0.0666 | 0.053 |  | 0.0741 | 0.0632 | 0.0687 | 0.0699 | 0.063 | 0.097 | 0.0573 | 0.068 |  | 0.0691 | 0.0786 | 0.108 |  | 0.102 |
| MGESLFKGPRDYNPISSSICHLTNESDGHTTSLYGIGFGPFIITNKHLFRRNNGTLVVQSLHGVFKVKDTTTLQQHLVDGRDMIIIRMPKDFPPFPQKLKFREPQREERICLVTTNFQTKSMSSMVSDTSCTFPSGDGIFWKHWIQTKDGQCGSPVVSTRDGFIVGIHSASNFTNTNNYFTSVPKNFMELLTNQEAQQWVSGWRLNADSVLWGGHKVFMVKPEEPFQPVKEATQL [L156V] | 0.109 | 0.117 |  | 0.0614 |  | 0.0687 | 0.0485 | 0.0633 |  | 0.0687 | 0.0596 | 0.0992 | 0.0472 | 0.0435 | 0.0659 | 0.074 |  | 0.0733 | 0.0757 | 0.102 |
| MGESLFKGPRDYNPISSSICHLTNESDGHTTSLYGIGFGPFIITNKHLFRRNNGTLVVQSLHGVFKVKDTTTLQQHLVDGRDMIIIRMPKDFPPFPQKLKFREPQREERICLVTTNFQTKSMSSMVSDTSCTFPSGDGIFWKHWIQTKDGQCGSPMVSTRDGFIVGIHSASNFTNTNNYFTSVPKNFMELLTNQEAQQWVSGWRLNADSVLWGGHKVFMVKPEEPFQPVKEATQL [L156M] | 0.0978 | 0.0957 | 0.0745 | 0.0513 | 0.0628 | 0.0677 | 0.0623 | 0.0745 | 0.0691 | 0.0844 | 0.0631 | 0.0945 | 0.0765 | 0.0528 | 0.0675 |  | 0.09 | 0.0878 | 0.0821 |  |
| MGESLFKGPRDYNPISSSICHLTNESDGHTTSLYGIGFGPFIITNKHLFRRNNGTLVVQSLHGVFKVKDTTTLQQHLVDGRDMIIIRMPKDFPPFPQKLKFREPQREERICLVTTNFQTKSMSSMVSDTSCTFPSGDGIFWKHWIQTKDGQCGSPLVSLRDGFIVGIHSASNFTNTNNYFTSVPKNFMELLTNQEAQQWVSGWRLNADSVLWGGHKVFMVKPEEPFQPVKEATQL [T159L] | 0.0965 | 0.121 |  |  | 0.0549 | 0.0732 | 0.0484 | 0.0426 |  | 0.0786 | 0.0656 | 0.0998 |  | 0.0641 | 0.0645 | 0.0796 |  | 0.108 | 0.08 | 0.093 |
| MGESLFKGPRDYNPISSSICHLTNESDGHTTSLYGIGFGPFIITNKHLFRRNNGTLVVQSLHGVFKVKDTTTLQQHLVDGRDMIIIRMPKDFPPFPQKLKFREPQREERICLVTTNFQTKSMSSMVSDTSCTFPSGDGIFWKHWIQTKNGQCGSPLVSTRDGFIVGIHSASNFTNTNNYFTSVPKNFMELLTNQEAQQWVSGWRLNADSVLWGGHKVFMVKPEEPFQPVKEATQL [D149N] | 0.0896 | 0.116 |  |  | 0.0538 | 0.0638 | 0.0379 |  | 0.0594 | 0.0589 | 0.0658 | 0.0992 | 0.0587 | 0.0547 | 0.0706 | 0.0829 | 0.0587 | 0.0777 | 0.0938 | 0.0954 |
| MGESLFKGPRDYNPISSSICHLTNESDGHTTSLYGIGFGPFIITNKHLFRRNNGTLVVQSLHGVFKVKDTTTLQQHLVDGRDMIIIRMPKDFPPFPQKLKFREPQREERICLVTTNFQTKSMSSMVSDTSCTFPSGDGIFWKHWIQTKDGQCGSPLVSTRDGFISGIHSASNFTNTNNYFTSVPKNFMELLTNQEAQQWVSGWRLNADSVLWGGHKVFMVKPEEPFQPVKEATQL [V165S] | 0.0447 |  |  |  | 0.069 | 0.0571 |  | 0.0538 |  | 0.0476 | 0.051 | 0.0538 | 0.0522 | 0.0446 | 0.0478 |  | 0.0575 |  |  |  |
